{
  "source": "paper PMC11753436",
  "about": "“Functional classification of tauopathy strains reveals the role of protofilament core residues” (Science Advances, 2025)",
  "binders": {"B1": {"name": "Tau RD(LM)-CFP (domain or fragment)", "chain": "not shown", "notes": "tau repeat domain, human, […], with P301L and V337M; source: HEK293T (DS strain cells), lentiviral transduction, in cells; not shown: eCFP, C-terminal, kept"}},
  "biological_target": "T1, Tau RD(LM)-YFP (human, UniProt P10636-8 244-375, P301L | V337M)",
  "T1 construct": "tau repeat domain, human, residues 244 to 375, with the disease-associated mutations P301L and V337M (LM); Forms stably propagated amyloid aggregates (strains DS2-DS19) in the cell lines; DS1 is the parental line without aggregates; P301L and V337M are each disease-associated; their combination on one chain was made by people; also called tau repeat domain (244 to 375) P301L/V337M fused to eYFP; …",
  "test": "FRET or BRET; FRET by flow cytometry (CFP to YFP, median fluorescence intensity of the FRET channel) in DS13 HEK293T cells that stably propagate Tau RD(LM)-YFP aggregates, transduced with lentivirus for Tau RD-CFP variants; read 24 to 72 h after transduction (scans at 48 h); cells gated for comparable YFP and CFP levels",
  "details": "partners not purified",
  "data": [
    {"binder": "B1", "values": [
      {"measurement": "fold FRET signal over Tau RD(LM/2P)", "result": "~5", "unit": "fold"}
    ]}
  ]
}
